Reference: PubChem BioAssay AID504832 (National Center for Advancing Translational Sciences (NCATS), 2011)
Out of some 310,000 compounds screened, about 18,000 (5.8%) were called active. The shares of active, inactive and inconclusive entries below differ from those in the screen. Calls come from the whole dose curve; as a rule, active = well fitted inhibition curve with a large enough effect; inconclusive = small, poorly fitted or top-dose-only effect, or another doubt; inactive = no such curve, though single readings can be large or run the other way. Potencies of inconclusive entries are left out as doubtful fits.

Experiment: Primary qHTS for delayed death inhibitors of the malarial parasite plastid, 48 hour incubation
Conditions: P. falciparum luciferase growth in erythrocytes; series mostly up to 28.7 µM
Outline: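 Read-out is firefly luciferase luminescence from an integrated reporter in P. falciparum, so falling signal marks reduced parasite growth. Infected erythrocytes were at 2% hematocrit and 0.1% parasitemia (final) in Albumax-supplemented RPMI 1640.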
Potency is the fitted concentration of half-maximal effect; tags give direction and shape of the fitted curve.

Row | Compound | Potency
1 | COc1ccc(N(CN2C(=O)C3CCCCC3C2=O)C(=O)c2ccco2)cc1 (stereo unspecified) | inactive
2 | Cc1ccc(C(=O)OCC(=O)Nc2cc(S(=O)(=O)N3CCOCC3)ccc2C)cc1 | inactive
3 | CC(C)(O)C#Cc1ccc(CN2CCN(C3CCCCC3)C(CCO)C2)cc1 (stereo unspecified) | inconclusive [inhibitor, partial curve, poor fit]
4 | Cc1ccc(OCc2ccc(C(=O)NCC3CCCO3)cc2)cc1C (stereo unspecified) | inconclusive [inhibitor, single point]
5 | CC1Oc2ccccc2N(CC(=O)Nc2ccc3c(c2)OCO3)C1=O (stereo unspecified) | inactive
6 | COc1ccc(C(=O)N2CCCC(N3CCN(c4ccccc4OC)CC3)C2)c(OC)n1 (stereo unspecified) | inactive
7 | CCOC(=O)/C=C/S(=O)(=O)c1ccc(NC(C)=O)cc1 | inactive
8 | O=[N+]([O-])c1ccc(NC2CCCC2)c2ccncc12 | inconclusive [inhibitor, partial curve, poor fit]
9 | CCc1ccc(Nc2cc(C)nc3ncnn23)cc1 | active: 3.29 µM
10 | Cc1ccc(C(=O)NCC2CCCO2)cc1S(=O)(=O)N1CCCCC1 (stereo unspecified) | inactive
11 | COCCN1Cc2cccc(C(=O)Nc3cccc(-c4nc5ccccc5[nH]4)c3)c2C1=O | active: 1.85 µM
12 | Cc1nn(-c2ccccc2)c(NC(=O)c2cccs2)c(-c2ccccc2Cl)c1=O | inactive
13 | O=C(Nc1ccc(N2CCCC2)c(Cl)c1)c1cccs1 | inconclusive [inhibitor, full curve, poor fit]
14 | O=C(N/N=C/c1ccc([N+](=O)[O-])s1)c1ccccc1Br | inconclusive [inhibitor, full curve, poor fit]
15 | Cc1ccccc1CN(C)CC(=O)Nc1ccccc1-c1ccccc1 | inconclusive [inhibitor, single point]
16 | COc1ccc(S(=O)(=O)NCc2ccccn2)cc1Br | inconclusive [inhibitor, partial curve, poor fit]
17 | O=C(c1cccc(C(F)(F)F)c1)c1c[nH]c(C(=O)NCCCN2CCOCC2)c1 | inconclusive [inhibitor, single point]
18 | Cc1ccc(SC[C@H](c2ccccc2)N2CCN(CCc3ccccc3)CCC2=O)cc1 | inconclusive [inhibitor, single point]
19 | CC1Cc2nc(SCC(=O)Nc3ccc4c(c3)OCCO4)n(C)c(=O)c2S1 (stereo unspecified) | inconclusive [inhibitor, single point]
20 | Cc1nc2ccccc2c2oc(C(=O)NCCCN3CC(C)CC(C)C3)cc12 (stereo unspecified) | inconclusive [inhibitor, partial curve]
21 | COc1ccccc1NC(=O)NC1CCCCCCC1 | inactive
22 | O=C(NCCCc1ccccc1)c1ccc([N+](=O)[O-])cc1Cl | inactive
23 | O=C(NCc1ccc(Cl)cc1)C(=O)NCC1OCCN1S(=O)(=O)c1cccs1 (stereo unspecified) | inactive

Row | Compound | Potency
24 | CC(C)c1ccc(N(C(=O)c2csnn2)C(C(=O)NC2CCCC2)c2cccnc2)cc1 (stereo unspecified) | inconclusive [inhibitor, partial curve]
25 | COc1ccc(NC(=O)N2CCc3ccccc3C2)c(OC)c1 | inactive
26 | CCN(C(=O)COC(=O)c1cc(=O)[nH]c2ccccc12)C1CCS(=O)(=O)C1 (stereo unspecified) | inconclusive [inhibitor, single point]
27 | CC(=O)Nc1cccc(OCCCNC(=O)c2ccc(F)cc2)c1 | inactive
28 | COC(=O)c1cc(OC)c(OC)cc1NC(=O)c1cccc(C)c1 | inconclusive [inhibitor, single point]
29 | O=C(Nc1cccc(S(=O)(=O)NC2=NCCC2)c1)c1cnc(Cl)c(Cl)c1 | inconclusive [inhibitor, single point]
30 | CCOc1ccc(C(=O)NCCn2cc(SCC(=O)Nc3cc(C)on3)c3ccccc32)cc1 | inconclusive [inhibitor, single point]
31 | COc1cccc(CSc2ccc(S(=O)(=O)N3CCOCC3)cc2C(=O)NCC2CCCO2)c1OC (stereo unspecified) | inconclusive [inhibitor, partial curve, poor fit]
32 | COc1ccc2c(c1OC)C(=O)N1N=C(c3ccc(F)cc3)CC21 (stereo unspecified) | inconclusive [inhibitor, partial curve, poor fit]
33 | CCCCOC(=O)C1=C(C)Nc2ncnn2C1c1ccc(OC)c(OC)c1 (stereo unspecified) | inconclusive [inhibitor, single point]
34 | CCOC(=O)C(=O)/C(=C\N(C)C)c1onc(-c2c(F)cccc2Cl)c1C(=O)OC | inactive
35 | CC(=O)NCc1ccc(C(=O)CN2C(=O)NC3(CCCCC3C)C2=O)s1 (stereo unspecified) | inconclusive [inhibitor, single point]
36 | COc1ccc(CCNC(=O)CN2C(=O)NC(C)(c3ccc([N+](=O)[O-])cc3)C2=O)cc1 (stereo unspecified) | inconclusive [inhibitor, partial curve, poor fit]
37 | Cc1ccnc(NC(=O)c2cccc([N+](=O)[O-])c2C)c1 | inactive
38 | CCn1ccnc1CN(C)Cc1nc(Cc2cccc(C(F)(F)F)c2)no1 | inactive
39 | COC(=O)C1=C(C)OC(N)=C(C#N)C1c1ccccc1 (stereo unspecified) | inactive
40 | CCOc1ccc(OC(=O)NC(c2ccccc2)C(Cl)(Cl)Cl)cc1 (stereo unspecified) | inconclusive [inhibitor, single point]
41 | CCOC(=O)N1CCC(NS(=O)(=O)c2cc3c(cc2Cl)NC(=O)CO3)CC1 | inconclusive [inhibitor, single point]
42 | Cc1ccc(N2C(=O)C3CCCN3C2=S)cc1C (stereo unspecified) | inactive
43 | Cc1ccccc1C(=O)N1N=C(c2ccc(NS(C)(=O)=O)cc2)CC1c1cccs1 (stereo unspecified) | inconclusive [inhibitor, partial curve]
44 | O=C(c1ccc(S(=O)(=O)N2CCCC2)cc1)N1CCCc2ccccc21 | inactive
45 | COC(=O)c1cccn(CC(=O)c2ccc(Cl)cc2Cl)c1=O | inconclusive [inhibitor, partial curve, poor fit]
46 | Cc1ccc(NC(=O)CSCC(=O)NCCc2ccccn2)c(C)c1 | inactive
